Changes are numbered by the printed parent chain. Results are given in words; binding and its absence hold for the method and conditions named. Binding seen in cells or lysates may run through a third protein. Some binding calls cover weakened binding; strength is not graded here. Sequences can lack the tags named with a protein.
Columns and labels:
[1] = target: T1, FLAG-KDM3A-S264D, full length (UniProt Q9Y4C1); assay: co-IP; FLAG-tagged KDM3A constructs transfected into Jurkat cells, with or without heat shock (42°C); whole cell extract, IP anti-FLAG; endogenous partner (Stat1, p-MSK1) by western blot
T1 sequence: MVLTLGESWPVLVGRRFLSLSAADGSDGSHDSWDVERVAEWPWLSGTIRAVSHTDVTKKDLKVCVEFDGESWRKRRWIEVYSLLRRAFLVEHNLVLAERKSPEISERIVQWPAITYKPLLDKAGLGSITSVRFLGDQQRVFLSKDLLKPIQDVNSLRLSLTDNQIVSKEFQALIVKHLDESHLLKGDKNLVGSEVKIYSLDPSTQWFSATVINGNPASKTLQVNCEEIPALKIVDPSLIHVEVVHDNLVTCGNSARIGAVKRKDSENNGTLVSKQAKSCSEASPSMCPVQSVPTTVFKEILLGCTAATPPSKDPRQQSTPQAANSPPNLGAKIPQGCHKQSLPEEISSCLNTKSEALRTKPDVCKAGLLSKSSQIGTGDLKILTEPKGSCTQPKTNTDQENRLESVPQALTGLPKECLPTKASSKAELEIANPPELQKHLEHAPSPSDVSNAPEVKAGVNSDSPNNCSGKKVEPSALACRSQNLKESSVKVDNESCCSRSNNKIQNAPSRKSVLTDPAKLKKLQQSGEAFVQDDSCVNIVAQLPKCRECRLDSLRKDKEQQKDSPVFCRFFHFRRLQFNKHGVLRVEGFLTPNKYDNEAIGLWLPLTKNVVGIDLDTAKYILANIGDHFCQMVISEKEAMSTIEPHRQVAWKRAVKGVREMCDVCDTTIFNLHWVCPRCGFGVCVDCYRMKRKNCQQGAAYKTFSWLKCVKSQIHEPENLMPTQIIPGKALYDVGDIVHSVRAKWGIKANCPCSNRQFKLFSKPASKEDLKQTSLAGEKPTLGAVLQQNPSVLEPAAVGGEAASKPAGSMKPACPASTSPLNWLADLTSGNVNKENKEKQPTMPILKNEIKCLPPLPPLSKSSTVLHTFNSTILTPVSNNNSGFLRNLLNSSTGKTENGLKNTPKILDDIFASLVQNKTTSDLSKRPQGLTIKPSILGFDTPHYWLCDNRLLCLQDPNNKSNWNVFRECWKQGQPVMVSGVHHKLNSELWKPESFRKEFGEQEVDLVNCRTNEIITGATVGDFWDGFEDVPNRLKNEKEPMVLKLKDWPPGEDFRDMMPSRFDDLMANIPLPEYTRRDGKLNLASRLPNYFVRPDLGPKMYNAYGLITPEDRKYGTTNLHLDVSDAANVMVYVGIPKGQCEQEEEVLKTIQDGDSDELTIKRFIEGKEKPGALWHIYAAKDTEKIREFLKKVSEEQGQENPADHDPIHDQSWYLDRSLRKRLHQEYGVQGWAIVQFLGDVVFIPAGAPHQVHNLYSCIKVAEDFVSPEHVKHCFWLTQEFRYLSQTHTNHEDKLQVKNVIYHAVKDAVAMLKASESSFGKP

Amino acid sequences for entries named in this document (tags omitted).
UniProt P42224: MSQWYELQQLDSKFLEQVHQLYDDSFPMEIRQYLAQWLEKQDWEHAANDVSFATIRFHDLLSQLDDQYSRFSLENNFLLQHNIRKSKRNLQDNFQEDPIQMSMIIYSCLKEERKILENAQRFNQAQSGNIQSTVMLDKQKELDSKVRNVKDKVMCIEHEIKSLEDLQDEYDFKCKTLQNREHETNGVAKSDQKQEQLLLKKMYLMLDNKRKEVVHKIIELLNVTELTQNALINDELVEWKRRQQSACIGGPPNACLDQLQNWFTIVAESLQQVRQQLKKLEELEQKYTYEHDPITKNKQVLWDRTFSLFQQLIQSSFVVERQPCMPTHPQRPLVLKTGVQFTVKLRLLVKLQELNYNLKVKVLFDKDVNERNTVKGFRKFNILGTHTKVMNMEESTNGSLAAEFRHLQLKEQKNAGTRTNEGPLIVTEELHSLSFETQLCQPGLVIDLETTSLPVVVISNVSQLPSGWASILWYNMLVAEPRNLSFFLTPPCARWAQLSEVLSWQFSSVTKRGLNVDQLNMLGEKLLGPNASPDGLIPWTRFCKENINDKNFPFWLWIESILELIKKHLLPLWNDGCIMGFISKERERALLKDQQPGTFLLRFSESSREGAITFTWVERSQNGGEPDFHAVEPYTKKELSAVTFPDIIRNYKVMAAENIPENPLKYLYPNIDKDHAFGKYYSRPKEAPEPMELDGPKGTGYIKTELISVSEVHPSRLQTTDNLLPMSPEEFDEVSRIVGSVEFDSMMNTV

[2] = target: T2, FLAG-KDM3A-S264A, full length (UniProt Q9Y4C1); assay: as above
T2 sequence: T1 sequence with D264A

Stat1 (endogenous) (from UniProt P42224 1-750)
binding [1]: binds | binding [2]: no binding
